Some of the results follow.
Tested on: PF3D7_0420300 AP2 domain 1 (GST-tagged)
Assay: gcPBM binding intensity (ln(normalized median fluorescence intensity)); higher = stronger DNA binding
Summary of the method: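 The highest Masliner-normalised natural-log median intensity across replicate spots of either probe orientation is reported as binding intensity. GST-tagged P. falciparum DNA-binding domains expressed in E. coli were applied for 1 h to an Agilent 4 × 180k array of primer-extended double-stranded 36-bp intergenic genomic probes plus negative controls, and bound protein was detected with Alexa488 anti-GST antibody and scanned at 488 nm.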

Row | Sequence | gcPBM binding intensity (ln)
1 | ATTATCCATGCATTTACACACACACTAATAAAAATT [CACACA_site9358] | 9.94
2 | TTTTAATAAACAAAACGTACACATTATTATTATATA [XGTACX_site335] | 9.19
3 | TTTGTAGTTTGCACATGTACACATTTCAAAATAAAG [XGTACX_site7568] | 9.1
4 | AATATATACATATATTGTACATATAGTTTCTTGCAT [XGTACX_site7871] | 9.31
5 | AGAGAGAAAGTTATAACATGCAACAATTTTTAGAAC [TGCATGCA_site96] | 9.35
6 | TTTTTTTCTTGTTTTAAATAATATACTGGAAAAAAA [CACACA_negctrl_site585] | 8.61
7 | TTTTTTTTTTTGTGGGTGCGTTTATAAAAACAGGAA | 9.1
8 | TTTCCATATTGTGGATGTACGTTTTGAGGTTTTTAC [XGTACX_site3362] | 9.28
9 | ATTTATCCAAAAAAATGTACAGGATAATTTGTTCAT [XGTACX_site7737] | 9.07
10 | TATTATGCCTTTAATATACACACTAATATTTTTTTG [CACACA_site2045] | 9.56
11 | TATAAAAATTAATATTGTACGTTTTATGAAAATAAA [XGTACX_site8237] | 8.89
12 | CATAATACCTATAACACACACAATTATACATAAACT [CACACA_site7506] | 9.9
13 | GGGTTCAATTTAAAGAGTACAAAAAATGTAGGTCAT [XGTACX_site5290] | 9.24
14 | ATATATATATATATTTGTACGTATTATGTATTTTTT [XGTACX_site3530] | 9.44
15 | AATACAATAAAATAGTGTACATATATATTATGTATA [XGTACX_site8258] | 9.37
16 | GAATAAATTAAAAACGCATGTATCATTACTACATAA [TGCATGCA_site111] | 9.18
17 | TTTATATTATACTATACATGCATATAATAAAGGTCA [TGCATGCA_site934] | 9.08
18 | TTAAAATATGATATATGTACATAATTACTAAAAACA [XGTACX_site276] | 9.22
19 | ATTTTATTTTTTTGTGATAATTGATTTATATATTGT [TGCATGCA_negctrl_site563] | 9.4

Row | Sequence | gcPBM binding intensity (ln)
20 | AATAGAATAATCCTTACACACACACGCGCACGAATA [CACACA_site6365] | 10.1
21 | ATTATTTCTTTGTGATGTACAAATAAACATGTTGGT [XGTACX_site5636] | 9.21
22 | TATATATTACATTGTTGTACATATATATTATATATA [XGTACX_site60] | 9.19
23 | ATATATATTTCTTAAAGTACATAATAATAAAAATAT [XGTACX_site8981] | 9.16
24 | ATAATTATTAAGAGAACATGCAAAATATATATGTTT [TGCATGCA_site503] | 9.38
25 | AAAGCACCCAGGCACACACACAAAGGAAAAGAAAAA [CACACA_site232] | 9.83
26 | ATTTTTATTCTTATTACACACCTAAATATAAAATAT [CACACA_site2064] | 9.48
27 | TTTATATTTATATTGGGTACATAAAAAGCTTGAAAT [XGTACX_site8248] | 8.94
28 | ATAAATATGGAGCACACACACATAAACATACATATA [CACACA_site421] | 10.1
29 | TGTGTTCATATATGCACACGCATATATATTATTGTT [CACACA_site3822] | 9.51
30 | TGTGTCCATTGAACAGTGCAATAAAAACTTTTACAT | 9.15
31 | AAAGGGGAAAATATTATACATATAATAAATCCGTAT [XGTACX_negctrl_site355] | 9.24
32 | AAAAAAAAAAAACACACACACACACCGATACATACA [CACACA_site8849] | 10.3
33 | TTTTTTTTTTTGTGGTGTACCTTTATTTCCTTTTAG [XGTACX_site6934] | 9.43
34 | ATTCATTTTATTTTTTCACACACACCGATATATATA [CACACA_site9097] | 10
35 | ACCCCCATATTCTTTTTACACACTTGAATAAAAAAT [CACACA_site8319] | 9.66
36 | ATTTTTCAATTATGTAGTACATTGATATTTTCATTT [XGTACX_site5369] | 9.32
37 | TTTATTTATTAATACACACACACACCCAGACAAAAT [CACACA_site4292] | 10.2
38 | TATCTTTTTACAATAGTGCATATGTTATCATTAATA [GTGCAC_site9489] | 9.23

Row | Sequence | gcPBM binding intensity (ln)
39 | ATTTGCCCATTTAATTAACACACAAATGTTTATATT [CACACA_site8145] | 9.64
40 | AGATATATAAATATTACACACTATATATCTATTTAT [CACACA_site6466] | 9.44
41 | GTATGCATTATATACACACATACATTTATATATTCT [CACACA_site115] | 9.68
42 | ATTATATACATTTTAGTGCATTACATAATAATATAA [GTGCAC_site9836] | 9.14
43 | TTTCTTTTTTGATGCGTGCACATTTGTTTATTTTTC [GTGCAC_site9792] | 9.49
44 | ACTATTTAATATAGGGTGCAACTTTTTCAAGTAAAT [GTGCAC_site9853] | 9.07
45 | AGTAATAAAAGTAGAAGTACAATACTTCAAAGATAT [XGTACX_site8562] | 9.44
46 | TATTTCAAAATATGGGTGCAGTTCTTCATGATATAT [GTGCAC_site9658] | 9.22
47 | GTTCTAAAAGTTAATGCATGTTATAAGTTTCCCTCT [TGCATGCA_site94] | 9.31
48 | ATGTATATATTTACGTGTACATATTCATGTGATATC [XGTACX_site5871] | 9.26
49 | TGCTATTTTTTCCTTTTTTTGTATCACAATCATATA [CACACA_negctrl_site1576] | 9.43
50 | TTATACTTTGGGTGGTGTACTATATTATGCTTATAA [XGTACX_site1106] | 9.51
51 | ATTAAACATAAATATGCACACATATACATATATTCA [CACACA_site8850] | 9.4
52 | TAAAATAGAAATATATGTACATATATATATGTATAT [XGTACX_site4134] | 9.28
53 | CGATATTCTAAGGATAGTACATAATAAAATAGAGTA [XGTACX_site4224] | 9.28
54 | ATTTATATTTTTTAATGTACATTTATATGTATACAA [XGTACX_site4555] | 9.25
55 | AAAAAACGCACTCGTACACACATATTTTCTTTCTAA [CACACA_site3089] | 9.57
56 | ATATAATCAACTGCAAAGGTTTAAAAGGAAAAAATA [CACACA_negctrl_site989] | 9.34
57 | TTAATTACACAAAAAAGTACTTGATATTGTTTATTA [XGTACX_site3449] | 9.13

Source: the supplement of paper PMC11417369
